# In all, about 33,000 sequences were measured (“E-score (-0.5 to 0.5)”: median about -0.01, highest 2% from about 0.26 on). Some of the results follow.
# Biological target: Ste12 (UniProt P13574)
# Assay: PBM E-score (8-mer binding enrichment) (E-score (-0.5 to 0.5)); higher = stronger / more preferred TF binding; most listed sequences are background and not binding sites
# Conditions: protein concentration: 200 nM; construct: GST-DNA-binding domain
# Protocol: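 Universal 'all 10-mer' protein binding microarrays (Agilent AMADID 015681) probed with GST-tagged S. cerevisiae TFs (full-length or DBD) made by in vitro transcription/translation (PURExpress), about 100-200 nM. Bound TF was detected with fluorescent anti-GST. Each ungapped 8-mer (which stands for itself and its reverse complement) is scored by the PBM enrichment score (E-score), a modified Wilcoxon-Mann-Whitney statistic from -0.5 to +0.5, computed with the Universal PBM Analysis Suite. Scale: above 0.35 generally sequence-specific binding.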
row,Sequence,PBM E-score
1,CCGTACGG,-0.159
2,AAAGTATA,0.222
3,ACAGTGGG,-0.0947
4,CTTGTTCA,-0.105
5,CAACAGGG,0.144
6,AACGGCGG,-0.0152
7,AGCGACCG,-0.185
8,TCACAGCA,0.141
9,GAGATCAC,-0.125
10,AGAAGTAC,-0.173
11,AAAGTAAT,0.247
12,AACACACA,0.236
13,TGCGCAAA,-0.134
14,GAATTAGC,0.084
15,GCGGTACC,0.0146
16,TGCCAGCA,0.0672
17,GTCGTGAA,-0.187
18,CATCATAA,0.121
19,AACGGCCC,-0.102
20,CCAGAAAA,0.176
21,CTAATGAC,-0.141
22,CCGTGGTA,-0.178
23,ATCGTGAA,0.089
24,ACGGTATC,-0.0409
25,CAGTAAAA,0.208

row,Sequence,PBM E-score
1,CCTTTAGA,-0.0422
2,CAACAACG,0.0265
3,CCGATAGA,0.0948
4,AATGATAT,0.113
5,GTGCCTAA,-0.26
6,GACGGCTA,-0.12
7,AGGGACAT,0.0172
8,AGAATAAA,0.204
9,ACAGAGTG,-0.184
10,ATGCGTCG,0.00383
11,TAAGAATA,0.196
12,GCAAAATA,0.226
13,CATGCCCG,-0.031
14,CGCAATGA,0.0826
15,ATCAGTAA,0.154
16,CTTCTTCA,0.00129
17,GGTCGACC,0.0772
18,GCAATAGC,0.00424
19,CTATTCGC,0.0141
20,GTAATCAA,0.0538
21,AAGGGGTC,-0.234
22,GCAGACGC,-0.0476
23,GAGGTACA,-0.16
24,CTCGTCGA,-0.154
25,GCCTCCCC,0.305

row,Sequence,PBM E-score
1,AACTGAAT,0.0596
2,AACTATCT,0.12
3,CCCCCTGC,-0.219
4,CTGAGCAC,-0.199
5,AGTCCTGC,-0.196
6,ATAAACTC,0.125
7,ACCTATTA,0.0333
8,ACAAGCCA,-0.0754
9,CAGTATCG,0.00517
10,CCATGACA,0.0963
11,CTGCTGGA,-0.0315
12,CCCTGGCG,-0.153
13,CTCGTGCC,-0.244
14,AGGCAATG,-0.152
15,ATTCATAA,0.205
16,CCGCACAG,-0.00432
17,CGGCAAGC,-0.0423
18,AGGGTGAC,-0.0433
19,GACCTTAA,-0.0226
20,CTATATCC,-0.0647
21,ATATCCTC,0.0379
22,CGACATTC,0.00586
23,AGAGTACT,-0.193
24,CAACTTGG,-0.0701
25,AGGGTGAG,-0.127

row,Sequence,PBM E-score
1,ATGATACG,0.25
2,CTCTGGCC,0.0202
3,GTGACCAA,0.175
4,TGTACCAA,-0.0484
5,ACCGGCCG,-0.0444
6,GAACCCAC,-0.0413
7,CATTTCTA,0.189
8,AGAGTTGA,-0.0346
9,AGATTTCG,0.0485
10,GACGGGAA,-0.0951
11,GAAGTCCC,-0.195
12,AAACACGT,0.18
13,AGGTGGAA,0.00669
14,CCTATAAG,0.0662
15,ACAAGTCG,-0.174
16,ACAGATCC,0.111
17,AGTTTAGA,0.175
18,AGGATACC,-0.182
19,AGGCACTA,-0.0882
20,ATACGTCC,-0.16
21,AGCTAGCG,-0.0094
22,AATCAATT,0.176
23,AATTCTAG,0.253
24,CAAGCAAC,-0.158
25,ACCGAAGA,-0.0162

row,Sequence,PBM E-score
1,CTCGGCAA,0.0666
2,GTAACGTA,0.026
3,CTTTATCC,-0.0182
4,ATTGGCTA,-0.198
5,ACAGCGCA,-0.0296
6,ATCCGGCG,-0.0194
7,ATACGGAT,-0.116
8,AAAGAAGC,0.0592
9,CCTCCTTC,-0.0212
10,CCAAGCGC,-0.00357
11,AAATCCAT,0.153
12,AGCTACAG,-0.143
13,ATGTGAAT,0.171
14,AGTTTACA,0.125
15,GGTAATCA,-0.0052
16,CTTGCGTC,-0.164
17,TAAAAGGA,0.0696
18,CCGACTCC,0.0532
19,GAGCTTGC,-0.225
20,ACAATTGG,-0.226
21,AACATTTC,0.0303
22,GACGTGGA,-0.21
23,AAGTAGCC,0.0303
24,AGAGAGAC,-0.105
25,GCGAATTA,0.0563

row,Sequence,PBM E-score
1,TCGCGGAA,-0.0362
2,GAATCTGC,0.0541
3,GGACTATA,0.0221
4,AGGTACCG,0.0438
5,CGAATTGC,-0.0272
6,CTACCCCC,-0.14
7,GAGCCGCA,-0.112
8,CCGACCGA,-0.131
9,ATTAGCAC,0.0722
10,GGACTGCC,-0.119
11,CAGCACTC,-0.0353
12,ATCGGGTC,0.0807
13,CCGGGAAC,-0.015
14,ATTCTTAA,0.155
15,CCCTTGCC,-0.0578
16,CGTCTTTA,0.00222
17,GATTTTGC,-0.044
18,GCGACACC,-0.0458
19,ACCCCTTC,-0.0377
20,CATCGCCG,-0.0762
21,CCACCGGC,-0.2
22,GCCATACC,-0.112
23,CGGACTAG,-0.0897
24,CCCTTTTA,-0.119
25,AGGATAGG,0.00531

row,Sequence,PBM E-score
1,GAGTTATA,0.0966
2,GGCGAGGA,-0.178
3,TCGTCAGA,-0.157
4,GCTATCCA,0.013
5,GCGGCAAC,-0.0599
6,ACATGCGA,-0.0184
7,ACTGATCT,-0.0332
8,GAGGACAC,-0.18
9,ACCTCCAC,-0.0491
10,CGTTAGAG,-0.0564
11,ATGTGGTA,0.0215
12,GCGAGAGA,-0.0352
13,ATCAGGGG,-0.128
14,AGAAGGGC,-0.223
15,GGCACATA,0.0754
16,GCGCAATA,-0.0201
17,CAGCGAAC,0.0308
18,GGAGGCAA,-0.187
19,AGGTCGAG,-0.118
20,GTGTCCCA,0.115
21,ATCGGCTG,-0.136
22,CGTGGACC,-0.285
